# Some of the results follow.
# B1: Cohesin-hLangerin (Homo sapiens) (protein)
# chain: LDDLDAVRIKVDTVNAKPGDTVRIPVRFSGIPSKGIANCDFVYSYDPNVLEIIEIEPGDIIVDPNPDKSFDTAVYPDRKIIVFLFAEDSGTGAYAITKDGVFATIVAKVKEGAPNGLSVIKFVEVGGFANNDLVEQKTQFFDGGANVGDTTEPATPTTPVTTPTTTDDLDAASYPRFMGTISDVKTNVQLLKGRVDNISTLDSEIKKNSDGMEAAGVQIQMVNESLGYVRSQFLKLKTSVEKANAQIQILTRSWEEVSTLNAQIPELKSDLEKASALNTKIRALQGSLENMSKLLKRQNDILQVVSQGWKYFKGNFYYFSLIPKTWYSAEQFCVSRNSHLTSVTSESEQEFLYKTAGGLIYWIGLTKAGMEGDWSWVDDTPFNKVQSARFWIPGEPNNAGNNEHCGNIKAPSLQAWNDAPCDKTFLFICKRPYVPSEPHHHHHH
# Assays:
# Assay in all cases: glycan array binding signal (z-score within array); higher = stronger binding
# Details in all cases: glycan notation: IUPAC condensed, linker removed
# [1] = target: GlcNAc(b1-2)Gal(b1-3)GalNAc
# Outline: (§1)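 The Consortium for Functional Glycomics database supplied 3228 glycan arrays, of which those lacking an available protein sequence were dropped. The binding signal, a within-array Z-score, was averaged across arrays of the same protein sequence and across linkers. Negative scores can be read as non-binding.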
# [2] = target: GlcNAc(b1-2)Man(a1-3)[GlcNAc(b1-2)Man(a1-6)]Man(b1-4)GlcNAc(b1-4)GlcNAc
# Outline: as §1
# [3] = target: GlcNAc(b1-2)Man(a1-3)[GlcNAc(b1-2)Man(a1-6)]Man(b1-4)GlcNAc(b1-4)[Fuc(a1-6)]GlcNAc
# Outline: as §1
# [4] = target: GlcNAc(b1-2)Man(a1-3)[GlcNAc(b1-4)][GlcNAc(b1-2)Man(a1-6)]Man(b1-4)GlcNAc(b1-4)GlcNAc
# Outline: as §1
# [5] = target: GlcNAc(b1-2)Man(a1-3)[GlcNAc(b1-4)][GlcNAc(b1-2)Man(a1-6)]Man(b1-4)GlcNAc(b1-4)[Fuc(a1-6)]GlcNAc
# Outline: as §1
# [6] = target: GlcNAc(b1-2)[GlcNAc(b1-4)]Man(a1-3)[GlcNAc(b1-2)Man(a1-6)]Man(b1-4)GlcNAc(b1-4)GlcNAc
# Outline: as §1
# [7] = target: GlcNAc(b1-2)[GlcNAc(b1-4)]Man(a1-3)[GlcNAc(b1-4)][GlcNAc(b1-2)Man(a1-6)]Man(b1-4)GlcNAc(b1-4)GlcNAc
# Outline: as §1
# [8] = target: GlcNAc(b1-2)[GlcNAc(b1-4)]Man(a1-3)[GlcNAc(b1-4)][GlcNAc(b1-2)[GlcNAc(b1-6)]Man(a1-6)]Man(b1-4)GlcNAc(b1-4)GlcNAc
# Outline: as §1
# [9] = target: GlcNAc(b1-2)[GlcNAc(b1-4)]Man(a1-3)[GlcNAc(b1-4)][GlcNAc(b1-2)[GlcNAc(b1-6)]Man(a1-6)]Man(b1-4)GlcNAc(b1-4)[Fuc(a1-6)]GlcNAc
# Outline: as §1
# [10] = target: GlcNAc(b1-2)[GlcNAc(b1-6)]Man(a1-6)[GlcNAc(b1-2)Man(a1-3)]Man(b1-4)GlcNAc(b1-4)GlcNAc
# Outline: as §1
# [11] = target: GlcNAc(b1-2)[GlcNAc(b1-6)]Man(a1-6)[GlcNAc(b1-2)Man(a1-3)]Man(b1-4)GlcNAc(b1-4)[Fuc(a1-6)]GlcNAc
# Outline: as §1
# [12] = target: GlcNAc(b1-2)[GlcNAc(b1-6)]Man(a1-6)[GlcNAc(b1-4)][GlcNAc(b1-2)Man(a1-3)]Man(b1-4)GlcNAc(b1-4)GlcNAc
# Outline: as §1
# GlcNAc(b1-3)Fuc = target: GlcNAc(b1-3)Fuc
# Outline: as §1
# GlcNAc(b1-3)Gal = target: GlcNAc(b1-3)Gal
# Outline: as §1
# [13] = target: GlcNAc(b1-3)Gal(b1-3)GalNAc
# Outline: as §1
# GlcNAc(b1-3)Gal(b1-4)Glc = target: GlcNAc(b1-3)Gal(b1-4)Glc
# Outline: as §1
# [14] = target: GlcNAc(b1-3)Gal(b1-4)GlcNAc
# Outline: as §1
# [15] = target: GlcNAc(b1-3)Gal(b1-4)GlcNAc(b1-2)Man(a1-3)[GlcNAc(b1-3)Gal(b1-4)GlcNAc(b1-2)Man(a1-6)]Man(b1-4)GlcNAc(b1-4)GlcNAc
# Outline: as §1
# [16] = target: GlcNAc(b1-3)Gal(b1-4)GlcNAc(b1-2)Man(a1-3)[GlcNAc(b1-3)Gal(b1-4)GlcNAc(b1-2)Man(a1-6)]Man(b1-4)GlcNAc(b1-4)[Fuc(a1-6)]GlcNAc
# Outline: as §1
# [17] = target: GlcNAc(b1-3)Gal(b1-4)GlcNAc(b1-2)[GlcNAc(b1-3)Gal(b1-4)GlcNAc(b1-6)]Man(a1-6)[GlcNAc(b1-3)Gal(b1-4)GlcNAc(b1-2)Man(a1-3)]Man(b1-4)GlcNAc(b1-4)GlcNAc
# Outline: as §1
# [18] = target: GlcNAc(b1-3)Gal(b1-4)GlcNAc(b1-3)Gal(b1-4)GlcNAc
# Outline: as §1
# [19] = target: GlcNAc(b1-3)Gal(b1-4)GlcNAc(b1-3)Gal(b1-4)GlcNAc(b1-2)Man(a1-3)[GlcNAc(b1-3)Gal(b1-4)GlcNAc(b1-3)Gal(b1-4)GlcNAc(b1-2)Man(a1-6)]Man(b1-4)GlcNAc(b1-4)GlcNAc
# Outline: as §1
# [20] = target: GlcNAc(b1-3)Gal(b1-4)GlcNAc(b1-3)Gal(b1-4)GlcNAc(b1-2)Man(a1-3)[GlcNAc(b1-3)Gal(b1-4)GlcNAc(b1-3)Gal(b1-4)GlcNAc(b1-2)Man(a1-6)]Man(b1-4)GlcNAc(b1-4)[Fuc(a1-6)]GlcNAc
# Outline: as §1
# [21] = target: GlcNAc(b1-3)Gal(b1-4)GlcNAc(b1-3)Gal(b1-4)GlcNAc(b1-2)[GlcNAc(b1-3)Gal(b1-4)GlcNAc(b1-3)Gal(b1-4)GlcNAc(b1-6)]Man(a1-6)[GlcNAc(b1-3)Gal(b1-4)GlcNAc(b1-3)Gal(b1-4)GlcNAc(b1-2)Man(a1-3)]Man(b1-4)GlcNAc(b1-4)[Fuc(a1-6)]GlcNAc
# Outline: as §1
# [22] = target: GlcNAc(b1-3)Gal(b1-4)GlcNAc(b1-3)Gal(b1-4)GlcNAc(b1-3)Gal(b1-4)GlcNAc(b1-2)Man(a1-3)[GlcNAc(b1-3)Gal(b1-4)GlcNAc(b1-3)Gal(b1-4)GlcNAc(b1-3)Gal(b1-4)GlcNAc(b1-2)Man(a1-6)]Man(b1-4)GlcNAc(b1-4)GlcNAc
# Outline: as §1
# [23] = target: GlcNAc(b1-3)Gal(b1-4)GlcNAc(b1-3)Gal(b1-4)GlcNAc(b1-3)Gal(b1-4)GlcNAc(b1-2)Man(a1-3)[GlcNAc(b1-3)Gal(b1-4)GlcNAc(b1-3)Gal(b1-4)GlcNAc(b1-3)Gal(b1-4)GlcNAc(b1-2)Man(a1-6)]Man(b1-4)GlcNAc(b1-4)[Fuc(a1-6)]GlcNAc
# Outline: as §1
# [24] = target: GlcNAc(b1-3)Gal(b1-4)GlcNAc(b1-3)Gal(b1-4)GlcNAc(b1-3)Gal(b1-4)GlcNAc(b1-2)[GlcNAc(b1-3)Gal(b1-4)GlcNAc(b1-3)Gal(b1-4)GlcNAc(b1-3)Gal(b1-4)GlcNAc(b1-6)]Man(a1-6)[GlcNAc(b1-3)Gal(b1-4)GlcNAc(b1-3)Gal(b1-4)GlcNAc(b1-3)Gal(b1-4)GlcNAc(b1-2)Man(a1-3)]Man(b1-4)GlcNAc(b1-4)[Fuc(a1-6)]GlcNAc
# Outline: as §1
# [25] = target: GlcNAc(b1-3)Gal(b1-4)GlcNAc(b1-3)Gal(b1-4)GlcNAc(b1-3)Gal(b1-4)GlcNAc(b1-3)Gal(b1-4)GlcNAc(b1-2)Man(a1-3)[GlcNAc(b1-3)Gal(b1-4)GlcNAc(b1-3)Gal(b1-4)GlcNAc(b1-3)Gal(b1-4)GlcNAc(b1-3)Gal(b1-4)GlcNAc(b1-2)Man(a1-6)]Man(b1-4)GlcNAc(b1-4)GlcNAc
# Outline: as §1
# [26] = target: GlcNAc(b1-3)Gal(b1-4)GlcNAc(b1-3)Gal(b1-4)GlcNAc(b1-3)Gal(b1-4)GlcNAc(b1-3)Gal(b1-4)GlcNAc(b1-2)Man(a1-3)[GlcNAc(b1-3)Gal(b1-4)GlcNAc(b1-3)Gal(b1-4)GlcNAc(b1-3)Gal(b1-4)GlcNAc(b1-3)Gal(b1-4)GlcNAc(b1-2)Man(a1-6)]Man(b1-4)GlcNAc(b1-4)[Fuc(a1-6)]GlcNAc
# Outline: as §1
# [27] = target: GlcNAc(b1-3)Gal(b1-4)GlcNAc(b1-3)Gal(b1-4)GlcNAc(b1-3)Gal(b1-4)GlcNAc(b1-3)Gal(b1-4)GlcNAc(b1-2)[GlcNAc(b1-3)Gal(b1-4)GlcNAc(b1-3)Gal(b1-4)GlcNAc(b1-3)Gal(b1-4)GlcNAc(b1-3)Gal(b1-4)GlcNAc(b1-6)]Man(a1-6)[GlcNAc(b1-3)Gal(b1-4)GlcNAc(b1-3)Gal(b1-4)GlcNAc(b1-3)Gal(b1-4)GlcNAc(b1-3)Gal(b1-4)GlcNAc(b1-2)Man(a1-3)]Man(b1-4)GlcNAc(b1-4)[Fuc(a1-6)]GlcNAc
# Outline: as §1
# [28] = target: GlcNAc(b1-3)Gal(b1-4)GlcNAc(b1-3)Gal(b1-4)GlcNAc(b1-3)GalNAc
# Outline: as §1
# [29] = target: GlcNAc(b1-3)Gal(b1-4)GlcNAc(b1-3)GalNAc
# Outline: as §1
# [30] = target: GlcNAc(b1-3)Gal(b1-4)GlcNAc(b1-3)[GlcNAc(b1-3)Gal(b1-4)GlcNAc(b1-3)]GalNAc
# Outline: as §1
# [31] = target: GlcNAc(b1-3)Gal(b1-4)GlcNAc(b1-6)[Gal(b1-3)]GalNAc
# Outline: as §1
# [32] = target: GlcNAc(b1-3)Gal(b1-4)GlcNAc(b1-6)[GlcNAc(b1-3)Gal(b1-3)]GalNAc
# Outline: as §1
# [33] = target: GlcNAc(b1-3)Gal(b1-4)GlcNAc(b1-6)[GlcNAc(b1-3)]Gal(b1-4)GlcNAc
# Outline: as §1
# GlcNAc(b1-3)GalNAc = target: GlcNAc(b1-3)GalNAc
# Outline: as §1
binder,measurement,setting,value
B1,glycan array binding signal (z-score),[1],2.67
same,glycan array binding signal (z-score),[2],-0.267
same,glycan array binding signal (z-score),[3],-0.398
same,glycan array binding signal (z-score),[4],-0.389
same,glycan array binding signal (z-score),[5],1.03
same,glycan array binding signal (z-score),[6],-0.372
same,glycan array binding signal (z-score),[7],-0.376
same,glycan array binding signal (z-score),[8],-0.435
same,glycan array binding signal (z-score),[9],-0.2
same,glycan array binding signal (z-score),[10],-0.407
same,glycan array binding signal (z-score),[11],-0.241
same,glycan array binding signal (z-score),[12],-0.439
same,glycan array binding signal (z-score),GlcNAc(b1-3)Fuc,-0.302
same,glycan array binding signal (z-score),GlcNAc(b1-3)Gal,-0.42
same,glycan array binding signal (z-score),[13],-0.192
same,glycan array binding signal (z-score),GlcNAc(b1-3)Gal(b1-4)Glc,-0.38
same,glycan array binding signal (z-score),[14],-0.291
same,glycan array binding signal (z-score),[15],-0.336
same,glycan array binding signal (z-score),[16],0.641
same,glycan array binding signal (z-score),[17],0.383
same,glycan array binding signal (z-score),[18],-0.437
same,glycan array binding signal (z-score),[19],0.693
same,glycan array binding signal (z-score),[20],1.87
same,glycan array binding signal (z-score),[21],4.94
same,glycan array binding signal (z-score),[22],-0.124
same,glycan array binding signal (z-score),[23],2.43
same,glycan array binding signal (z-score),[24],0.079
same,glycan array binding signal (z-score),[25],0.534
same,glycan array binding signal (z-score),[26],1.99
same,glycan array binding signal (z-score),[27],0.101
same,glycan array binding signal (z-score),[28],-0.41
same,glycan array binding signal (z-score),[29],-0.255
same,glycan array binding signal (z-score),[30],-0.267
same,glycan array binding signal (z-score),[31],-0.317
same,glycan array binding signal (z-score),[32],1.34
same,glycan array binding signal (z-score),[33],0.339
same,glycan array binding signal (z-score),GlcNAc(b1-3)GalNAc,-0.39

# From the supplement of paper PMC8728848
